Paper PMC4336329 (PLoS ONE, 2015)
Screen size: about 310,000 compounds; about 2,200 (0.71%) showed an effect of 50% or more. Effects have a minus sign here. Some of the results follow.

Biological target: human ether-à-go-go-related gene (hERG) potassium channel (human, UniProt Q12809)
Experiment: primary screen, population patch clamp on CHO cells stably expressing hERG

Sequence of human ether-à-go-go-related gene (hERG) potassium channel (Q12809 whole entry, looked up): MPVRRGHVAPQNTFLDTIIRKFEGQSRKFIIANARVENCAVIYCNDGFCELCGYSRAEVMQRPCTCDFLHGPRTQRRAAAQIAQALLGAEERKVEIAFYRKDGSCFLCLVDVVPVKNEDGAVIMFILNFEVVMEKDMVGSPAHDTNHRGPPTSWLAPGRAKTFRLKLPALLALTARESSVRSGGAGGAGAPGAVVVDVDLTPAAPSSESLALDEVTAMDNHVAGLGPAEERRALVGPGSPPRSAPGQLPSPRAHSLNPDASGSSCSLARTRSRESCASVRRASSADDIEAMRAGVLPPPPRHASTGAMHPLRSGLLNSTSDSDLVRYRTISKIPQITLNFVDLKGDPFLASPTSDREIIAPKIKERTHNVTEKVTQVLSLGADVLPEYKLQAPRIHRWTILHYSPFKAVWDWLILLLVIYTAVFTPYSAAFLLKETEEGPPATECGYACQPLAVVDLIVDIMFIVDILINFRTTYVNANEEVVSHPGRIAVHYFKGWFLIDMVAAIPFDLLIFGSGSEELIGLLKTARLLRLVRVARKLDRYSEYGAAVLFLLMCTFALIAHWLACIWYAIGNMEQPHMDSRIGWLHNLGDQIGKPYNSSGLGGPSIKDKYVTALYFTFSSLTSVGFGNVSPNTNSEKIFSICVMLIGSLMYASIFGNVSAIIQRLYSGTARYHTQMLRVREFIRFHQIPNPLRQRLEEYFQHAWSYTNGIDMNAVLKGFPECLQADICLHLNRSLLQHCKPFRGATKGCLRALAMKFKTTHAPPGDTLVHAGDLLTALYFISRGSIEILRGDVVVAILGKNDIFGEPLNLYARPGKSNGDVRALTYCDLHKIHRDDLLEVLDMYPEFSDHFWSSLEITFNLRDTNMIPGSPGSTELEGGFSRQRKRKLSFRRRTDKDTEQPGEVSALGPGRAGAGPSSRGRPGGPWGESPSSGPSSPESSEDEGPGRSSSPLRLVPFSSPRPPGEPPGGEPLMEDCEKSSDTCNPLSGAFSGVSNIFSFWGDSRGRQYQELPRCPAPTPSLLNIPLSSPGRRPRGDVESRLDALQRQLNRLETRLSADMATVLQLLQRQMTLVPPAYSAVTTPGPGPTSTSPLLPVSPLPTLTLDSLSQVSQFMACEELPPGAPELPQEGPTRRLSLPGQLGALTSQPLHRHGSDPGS

SMILES	hERG current change (%, negative = inhibition) at 1uM [%]
Cc1ccc(NC(=O)C(C)N=C2NS(=O)(=O)c3ccccc32)cc1F (stereo not drawn)	12.1
O=C(Nc1ccccc1)Nc1cccn(Cc2c(F)cccc2Cl)c1=O	15.7
Cc1nc(NC(=O)CSc2ccc(-c3nc4ccccc4[nH]3)cn2)sc1C	0.253
NC(=O)c1ccc(NC(=O)COC(=O)CCC(=O)c2ccc(Cl)cc2)cc1	10.4
COc1ccc2c(CC(=O)N(C)CC3COc4ccccc4O3)coc2c1 (stereo not drawn)	18.4
C=CCSc1nc(=O)n2cccc(C)c2n1	-14.7
O=C(OCC(=O)N1CCN(C(=O)c2ccco2)CC1)c1ccccc1O	4.06
NC(=O)CN(c1ccc(Oc2ccccc2)cc1)S(=O)(=O)c1ccccc1	8.67
Cc1ccc(NC(=O)CN(C)C(=O)CN2C(=O)NC(C)(c3ccccc3)C2=O)cc1 (stereo not drawn)	4.41
COC(=O)[C@@H]1[C@H]2C[C@H]3c4[nH]c5ccccc5c4CCN3C[C@@H]2CC[C@@H]1O.Cl	4.59
CCOC(=O)c1ccc(NC(=S)NC(=O)C2CCCC2)cc1	8.99
CCN(CC)S(=O)(=O)c1ccc2c(c1)N(CC(=O)NCCc1ccc(S(N)(=O)=O)cc1)C(=O)CO2	-2.95
CCOc1ccc2[nH]c3c(=O)n(CCc4ccc(OC)cc4)cnc3c2c1	1.85
CCN(CC)c1ccc(NC(=O)c2ccc3c(c2)OCO3)c(C)c1	15.9
CCC(=O)Nc1ccc(NC(=S)Nc2ccccc2)cc1	7.18
COc1cc([N+](=O)[O-])ccc1NC(=O)Nc1nc2c(s1)CCCC2	11.2
O=C(NCc1ccco1)c1cc(-c2cccs2)on1	-1.08
CCCN(CCC)S(=O)(=O)c1ccc(C(=O)NNc2nc(-c3ccccc3)c3cc(Br)ccc3n2)cc1	-0.278
Cc1cc(C)nc(SCC(=O)NCC2COc3ccccc3O2)n1 (stereo not drawn)	7.28
CCOC(=O)c1ccc(CNC(=O)CSc2nc(NC(=O)c3ccccc3)c3c(C)c(C)oc3n2)cc1	3.94
O=C(Nc1ccc(Cl)cc1)Nc1cccc(C(=O)O)c1	7.61

SMILES	hERG current change (%, negative = inhibition) at 1uM [%]
Cc1onc(-c2ccccc2)c1C(=O)NCc1ccccn1	9.42
O=C(Nc1ccc2c(c1)OCCO2)c1ccc(Cl)cc1Cl	10.9
CCCc1nnc(NC(=O)c2cccc(OC)c2)s1	-16.3
CCN(CC)C(=O)CN(c1ccc(F)c(Cl)c1)S(C)(=O)=O	8.09
CCC(Sc1ncnc2c1c(-c1ccccc1)cn2-c1ccc(OC)cc1)C(=O)OC (stereo not drawn)	6.88
C/C=C\C(=O)Nc1cccc(C2=NOC3(C2)C[C@@H](C(N)=O)N(C(=O)c2ccc(OC)cc2)C3)c1 (stereo partly drawn)	0.602
N/C(=N\O)c1ccc(Oc2ccccc2Cl)c([N+](=O)[O-])c1	4.65
COc1ccccc1NC(=O)Nc1ccnn1Cc1cccs1	4.91
COC(=O)c1cc(S(=O)(=O)NCCN2CCN(c3ccccc3F)CC2)c[nH]1	19.6
COc1nn(CC(=O)N2N=C(C(F)F)CC2(O)C(F)F)cc1[N+](=O)[O-] (stereo not drawn)	-13.7
O=c1c(Cl)c(O)c2cccc3c4ccccc4n1c23	12.4
COc1cc(OC)cc(C(=O)Nc2ccc([N+](=O)[O-])cn2)c1	3.11
CCCCC(CC)C(=O)Nc1ccc(C)c(O)c1 (stereo not drawn)	27.5
Cc1ccn2c(NCc3ccc4c(c3)OCO4)c(-c3ccc(O)cc3)nc2c1	4.84
O=C(CCn1c(=S)oc2ccccc21)Nc1ccccc1F	-5.62
O=c1c2ccccc2nc(-c2ccco2)n1CCCn1ccnc1	-29.7
NC(=O)CCn1ccc2ccccc21	10.4
CCn1c2ccccc2c2cc(NC(=O)C(C)OC(=O)c3ccc(NC(=O)CC#N)cc3)ccc21 (stereo not drawn)	19.4
CC(=O)Oc1cc2c(C(=O)NCCN3CCOCC3)c(C)oc2c2ccccc12	-6.5
N#Cc1c(Cl)nc(-c2cccnc2)nc1-c1ccccc1	11.4
CCOC(=O)CCCNS(=O)(=O)c1c(C)ccc2nsnc12	1.17
